Measured values taken from PubChem BioAssay AID686971 (National Center for Advancing Translational Sciences (NCATS), 2013).
Among all 360,000 compounds or so, about 7,500 (2.1%) were called active. Inconclusive results, whose numbers are uncertain, are shown with a selection of clear calls. Calls come from the whole dose curve; as a rule, active = well fitted cell-killing curve with a large enough effect; inconclusive = small, poorly fitted or top-dose-only effect, or effect the other way, or another doubt; inactive = no such curve, though single readings can be large or run the other way. Potencies of inconclusive entries are left out as doubtful fits.

experiment: qHTS for induction of synthetic lethality in tumor cells producing 2HG: qHTS for the HT-1080-IDH1KD cell line; settings: HT-1080 IDH1 knockdown viability, ATP luminescence, 48 h; activity, negative = toxicity: at 46.1 µM (top of the series) unless noted;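 for activity, negative = toxicity: 0% = DMSO wells and -100% = cell-free medium wells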
Method in brief: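 Viability of IDH1-knockdown HT-1080 fibrosarcoma cells was assessed by CellTiter-Glo after 48 h at 37 °C with titrated compound; concentration-effect curves were classified by fit quality and response size.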
Potency is the fitted concentration of half-maximal effect; tags give direction and shape of the fitted curve.

| Structure (SMILES) | Potency | activity, negative = toxicity |
| --- | --- | --- |
| O=C(CCl)N1CCN(S(=O)(=O)c2ccc3c(c2)CCC3)CC1 | inconclusive [cytotoxic, single point] |  |
| CN(CC(=O)Nc1ccc(Cl)c(Cl)c1)C1CCCCC1 |  | inactive: 8.66% |
| COc1ccc(-c2nn(-c3ccccc3)cc2C(=O)NC(=S)N2CCOCC2)cc1OC | inconclusive [cytotoxic, single point] |  |
| O=C(NN1C(=O)/C(=C/c2ccc(O)c(O)c2)SC1=S)c1ccccc1 | inconclusive [cytotoxic, partial curve] |  |
| Cc1n[nH]c(C)c1N=Nc1ccc(Br)cc1 | inconclusive [cytotoxic, single point] |  |
| O=C(Nc1ccc(F)cc1)c1cnc(-c2ccccc2)nc1-c1ccccc1 | inconclusive [cytotoxic, partial curve] |  |
| CC(=O)c1cccc(NS(=O)(=O)c2ccc(-c3cnc(C4CC4)o3)cc2)c1 | inconclusive [cytotoxic, single point] |  |
| O=C(C[n+]1ccccc1)c1ccc(-c2ccccc2)cc1 |  | inconclusive: -9.26% [cytotoxic] |
| COC(=O)[C@]12CCCCC=C1N(Cc1cccc3ccccc13)C(=O)[C@H](CC(=O)N1CCCCC1)C2 | inconclusive [cytotoxic, single point] |  |
| C=CCNc1oc(-c2ccc(OCC)cc2)nc1C#N |  | inactive: -6.95% |
| Cc1cc2c(cc1S(=O)(=O)N1CC(C)CC(C)C1)OCC(=O)N2 (centres undefined) |  | inactive: 2.03% |
| C[N+]1(C)CCC(=C2c3ccccc3CC(=O)c3sccc32)CC1 | inconclusive [cytotoxic, single point] |  |
| Cc1cccc(N2CCN(C(=O)CNC(=O)c3ccccc3)CC2)c1C | inconclusive [cytotoxic, single point] |  |
| O=C(Nc1ccn(CCCNCCc2ccccn2)c(=O)n1)OCc1ccccc1 |  | inactive: 2.94% |
| COc1cccc(/C=N/NC(=O)c2ccc(-c3ccccc3)cc2)c1O | inconclusive [cytotoxic, full curve] |  |
| C[C@H](NC(=O)c1nc[nH]c1C(=O)N1CCN(c2ccccc2)CC1)C(=O)OCc1ccccc1 |  | inactive: -0.225% |
| CCCn1cc(NC(=O)c2cc(-c3ccccc3)on2)cn1 | inconclusive [cytotoxic, single point] |  |
| COc1ccc(C(=O)NCCCC2CCCC2)cc1OC1CCN(C(C)C)CC1 | inconclusive [cytotoxic, single point] |  |
| CCOC(=O)/C(=N\Nc1ccc(C(C)=O)cc1)c1csc(Nc2ccccc2)n1 | active: 16.4 µM |  |
